# Assay results taken from a collection of fitness landscapes (doi:10.1016/j.celrep.2020.107928).
# Whole data set: some 81,000 sequences, median “one-hybrid fitness for binding NBS DNA” near -0.1, cut for the highest 2% near 0.36. Some of the results follow.
# B1: Caulobacter ParB omega fusion; a variant is named by its letters at X, in order, B8GW30 (parent)
# chain: MESVVVGEPGMSEGRRGLGRGLSALLGEVDAAPAQAPGEQLGGSREAPIEILQRNPDQPRRTFREEDLEDLSNSIREKGVLQPILVRPSPDTAGEYQIVAGERAWRAAQRAGLKTVPIMVRELDDLAVLEIGIIENVQRADLNVLEEALSYKVLMEKFERTQENIAQTIGKSXSHVANXMRLLXLPDEVQSYLVSGELTAXHARAIAAAADPVALAKQIIEGGLSVRETEALARKAPNLSAGKSKGGRPPRVKDTDTQALESDLSSVLGLDVSIDHRGSTGTLTITYATLEQLDDLCNRLTRGI
# Variants of: B1
# Assay: one-hybrid fitness for binding NBS DNA (the Noc-binding site; scaled: cognate 1, non-cognate 0); higher = stronger binding
# Details: with NBS DNA site
# Method in brief: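 Values were rescaled so that cognate is 1 and non-cognate is 0. Each is a fitness, the log change in a variant's read ratio to wild type from Illumina reads of plasmids before and after selection, with three replicate libraries pooled and variants under 10 reads dropped. Selection of the Caulobacter ParB libraries, four specificity codons randomised, used E. coli USO with a HIS3 reporter, site 19 bp from the promoter, on M9-minus-histidine with 0.1 mM IPTG and 5 mM 3-AT for 48 hours at 37°C.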
row,Variant,one-hybrid fitness for binding NBS DNA
1,CYLV,≤ 0.2
2,PCSW,≤ 0.2
3,NNLV,≤ 0.2
4,KWPT,≤ 0.2
5,KLKG,≤ 0.2
6,EHTR,≤ 0.2
7,APKM,≤ 0.2
8,TEMT,≤ 0.2
9,PPVD,≤ 0.2
10,AMPG,≤ 0.2
11,NPVC,≤ 0.2
12,RRPQ,≤ 0.2
13,VRRM,≤ 0.2
14,PDIC,≤ 0.2
15,QLGV,≤ 0.2
16,VMSR,≤ 0.2
17,FSRG,≤ 0.2
18,PCPN,≤ 0.2
19,STDY,≤ 0.2
20,PRPN,≤ 0.2
21,VMCN,≤ 0.2
22,SPPV,≤ 0.2
23,AYIL,≤ 0.2
24,RHWY,≤ 0.2
25,FDNL,≤ 0.2
26,VRQY,≤ 0.2

row,Variant,one-hybrid fitness for binding NBS DNA
1,VQCY,≤ 0.2
2,RELM,≤ 0.2
3,RFSF,≤ 0.2
4,PVAM,≤ 0.2
5,QCVS,0.381
6,VVIE,≤ 0.2
7,WGDG,≤ 0.2
8,QIPL,≤ 0.2
9,RHKQ,0.219
10,IMTM,≤ 0.2
11,DGCG,≤ 0.2
12,YRYS,≤ 0.2
13,FMNI,≤ 0.2
14,HRHW,≤ 0.2
15,FKYE,≤ 0.2
16,KVVS,≤ 0.2
17,CVPC,≤ 0.2
18,DSVT,≤ 0.2
19,HFSL,≤ 0.2
20,SMLC,≤ 0.2
21,DYKR,≤ 0.2
22,HTSM,≤ 0.2
23,YIYG,≤ 0.2
24,SATM,≤ 0.2
25,RYNH,0.209
26,EHSS,≤ 0.2

row,Variant,one-hybrid fitness for binding NBS DNA
1,MPRR,≤ 0.2
2,NATV,≤ 0.2
3,TVIM,≤ 0.2
4,VCKS,≤ 0.2
5,TCNV,≤ 0.2
6,IWTS,≤ 0.2
7,VRAW,≤ 0.2
8,FHCG,≤ 0.2
9,MVCC,≤ 0.2
10,KRMH,≤ 0.2
11,PKAG,≤ 0.2
12,PMDG,≤ 0.2
13,GRKV,≤ 0.2
14,RAFF,≤ 0.2
15,ACRA,≤ 0.2
16,VSLC,≤ 0.2
17,LACS,≤ 0.2
18,EVTM,≤ 0.2
19,RVVY,≤ 0.2
20,VSVG,≤ 0.2
21,HCKD,≤ 0.2
22,PAPQ,≤ 0.2
23,CCKA,≤ 0.2
24,HARM,≤ 0.2
25,VRPS,≤ 0.2
26,DENT,≤ 0.2

row,Variant,one-hybrid fitness for binding NBS DNA
1,SIVN,≤ 0.2
2,RSMW,≤ 0.2
3,QTAH,0.401
4,AFDC,≤ 0.2
5,AGPT,≤ 0.2
6,MYQW,≤ 0.2
7,CLIG,≤ 0.2
8,VNRC,≤ 0.2
9,VSCR,≤ 0.2
10,DIYR,≤ 0.2
11,MCAR,≤ 0.2
12,SNGY,≤ 0.2
13,RPGL,≤ 0.2
14,CGCC,≤ 0.2
15,QPGQ,≤ 0.2
16,PFVW,≤ 0.2
17,QYEG,≤ 0.2
18,GNNV,≤ 0.2
19,EVQR,≤ 0.2
20,DWSP,≤ 0.2
21,RESS,≤ 0.2
22,KGHV,≤ 0.2
23,RKTK,≤ 0.2
24,AAGL,≤ 0.2
25,MMKR,≤ 0.2
26,RWNN,≤ 0.2

row,Variant,one-hybrid fitness for binding NBS DNA
1,PSTH,≤ 0.2
2,KSYR,≤ 0.2
3,PVGC,≤ 0.2
4,DAIC,≤ 0.2
5,FYRV,≤ 0.2
6,MFAT,≤ 0.2
7,TRTK,≤ 0.2
8,GVHS,≤ 0.2
9,STDN,≤ 0.2
10,RQEM,≤ 0.2
11,RGWG,≤ 0.2
12,VTSM,≤ 0.2
13,APRW,≤ 0.2
14,RRGP,≤ 0.2
15,FYRL,≤ 0.2
16,INKG,≤ 0.2
17,DMPR,≤ 0.2
18,LQVF,≤ 0.2
19,FQRG,≤ 0.2
20,LEWE,≤ 0.2
21,HSRA,≤ 0.2
22,VNST,≤ 0.2
23,FNTF,≤ 0.2
24,RSSF,≤ 0.2
25,PSRF,≤ 0.2
26,AREV,≤ 0.2

row,Variant,one-hybrid fitness for binding NBS DNA
1,IASV,≤ 0.2
2,RRMR,0.723
3,RIMF,≤ 0.2
4,TADE,≤ 0.2
5,SCGG,≤ 0.2
6,PMHY,≤ 0.2
7,FSHF,≤ 0.2
8,DCSL,≤ 0.2
9,VNQS,≤ 0.2
10,NKRA,≤ 0.2
11,IAVM,≤ 0.2
12,SDVT,≤ 0.2
13,KDMS,≤ 0.2
14,QNKW,≤ 0.2
15,TISC,≤ 0.2
16,VDGL,≤ 0.2
17,WMEG,≤ 0.2
18,CYHG,≤ 0.2
19,HHFS,≤ 0.2
20,HLEL,≤ 0.2
21,DDLR,≤ 0.2
22,AHPL,≤ 0.2
23,QEEK,≤ 0.2
